From article PMC9911399, “Two distinct binding modes provide the RNA-binding protein RbFox with extraordinary sequence specificity”
Where a chain is given by its changes, count along the chain named. Some of the results follow.

T1: RBFOX1 RRM (Homo sapiens, UniProt Q9NWB1 109-208)
T1 sequence: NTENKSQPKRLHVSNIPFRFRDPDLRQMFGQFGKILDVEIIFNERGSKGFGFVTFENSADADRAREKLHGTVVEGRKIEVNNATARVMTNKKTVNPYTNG

B1: UAUUCAU (DNA:RNA)
RNA: GGGAGACCGGAAUUCAGAUUGUCCUAUUCAUUUAAAUCCCGUCGUAGCCACCA
DNA 1: CAATCTGAATTCCGGTCTCCC
DNA 2: TGGTGGCTACGACGGGATT
B2: CAGUCAU (DNA:RNA)
RNA: B1 RNA with U25C, U27G
DNA 1: CAATCTGAATTCCGGTCTCCC
DNA 2: TGGTGGCTACGACGGGATT
B3: GUGUUCA (DNA:RNA)
RNA: B1 RNA with U25G, A26U, U27G, C29U, A30C, U31A
DNA 1: CAATCTGAATTCCGGTCTCCC
DNA 2: TGGTGGCTACGACGGGATT
B4: CCUAACG (DNA:RNA)
RNA: B1 RNA with U25C, A26C, U28A, C29A, A30C, U31G
DNA 1: CAATCTGAATTCCGGTCTCCC
DNA 2: TGGTGGCTACGACGGGATT
B5: UCGUAAU (DNA:RNA)
RNA: B1 RNA with A26C, U27G, C29A
DNA 1: CAATCTGAATTCCGGTCTCCC
DNA 2: TGGTGGCTACGACGGGATT
B6: GUGCUAC (DNA:RNA)
RNA: B1 RNA with U25G, A26U, U27G, U28C, C29U, U31C
DNA 1: CAATCTGAATTCCGGTCTCCC
DNA 2: TGGTGGCTACGACGGGATT
B7: GAUUAGC (DNA:RNA)
RNA: B1 RNA with U25G, C29A, A30G, U31C
DNA 1: CAATCTGAATTCCGGTCTCCC
DNA 2: TGGTGGCTACGACGGGATT
B8: CAGCUUG (DNA:RNA)
RNA: B1 RNA with U25C, U27G, U28C, C29U, A30U, U31G
DNA 1: CAATCTGAATTCCGGTCTCCC
DNA 2: TGGTGGCTACGACGGGATT
B9: GUCCGUA (DNA:RNA)
RNA: GGGAGACCGGAAUUCAGAUUGUCCGUCCGUAUUAAAUCCCGUCGUAGCCACCA
DNA 1: CAATCTGAATTCCGGTCTCCC
DNA 2: TGGTGGCTACGACGGGATT
B10: UAGAGCA (DNA:RNA)
RNA: B9 RNA with G25U, U26A, C27G, C28A, U30C
DNA 1: CAATCTGAATTCCGGTCTCCC
DNA 2: TGGTGGCTACGACGGGATT
B11: GAGAUGC (DNA:RNA)
RNA: B9 RNA with U26A, C27G, C28A, G29U, U30G, A31C
DNA 1: CAATCTGAATTCCGGTCTCCC
DNA 2: TGGTGGCTACGACGGGATT
B12: CCUAACA (DNA:RNA)
RNA: B9 RNA with G25C, U26C, C27U, C28A, G29A, U30C
DNA 1: CAATCTGAATTCCGGTCTCCC
DNA 2: TGGTGGCTACGACGGGATT
B13: UGAGGCG (DNA:RNA)
RNA: B9 RNA with G25U, U26G, C27A, C28G, U30C, A31G
DNA 1: CAATCTGAATTCCGGTCTCCC
DNA 2: TGGTGGCTACGACGGGATT
B14: AACCGAA (DNA:RNA)
RNA: B9 RNA with G25A, U26A, U30A
DNA 1: CAATCTGAATTCCGGTCTCCC
DNA 2: TGGTGGCTACGACGGGATT
B15: AGUUAGU (DNA:RNA)
RNA: B1 RNA with U25A, A26G, C29A, A30G
DNA 1: CAATCTGAATTCCGGTCTCCC
DNA 2: TGGTGGCTACGACGGGATT
B16: AUGAAGG (DNA:RNA)
RNA: B9 RNA with G25A, C27G, C28A, G29A, U30G, A31G
DNA 1: CAATCTGAATTCCGGTCTCCC
DNA 2: TGGTGGCTACGACGGGATT
B17: AAAGGCU (DNA:RNA)
RNA: B1 RNA with U25A, U27A, U28G, C29G, A30C
DNA 1: CAATCTGAATTCCGGTCTCCC
DNA 2: TGGTGGCTACGACGGGATT
B18: GCCGGAU (DNA:RNA)
RNA: B9 RNA with U26C, C28G, U30A, A31U
DNA 1: CAATCTGAATTCCGGTCTCCC
DNA 2: TGGTGGCTACGACGGGATT
B19: UACGCUG (DNA:RNA)
RNA: B1 RNA with U27C, U28G, A30U, U31G
DNA 1: CAATCTGAATTCCGGTCTCCC
DNA 2: TGGTGGCTACGACGGGATT
B20: GUUAGCC (DNA:RNA)
RNA: B9 RNA with C27U, C28A, U30C, A31C
DNA 1: CAATCTGAATTCCGGTCTCCC
DNA 2: TGGTGGCTACGACGGGATT
B21: CGAUAGC (DNA:RNA)
RNA: B1 RNA with U25C, A26G, U27A, C29A, A30G, U31C
DNA 1: CAATCTGAATTCCGGTCTCCC
DNA 2: TGGTGGCTACGACGGGATT
B22: UACUUAA (DNA:RNA)
RNA: B1 RNA with U27C, C29U, U31A
DNA 1: CAATCTGAATTCCGGTCTCCC
DNA 2: TGGTGGCTACGACGGGATT
B23: ACUGUUG (DNA:RNA)
RNA: B9 RNA with G25A, U26C, C27U, C28G, G29U, A31G
DNA 1: CAATCTGAATTCCGGTCTCCC
DNA 2: TGGTGGCTACGACGGGATT
B24: AAUAUCA (DNA:RNA)
RNA: B1 RNA with U25A, U28A, C29U, A30C, U31A
DNA 1: CAATCTGAATTCCGGTCTCCC
DNA 2: TGGTGGCTACGACGGGATT
B25: GCGCUCU (DNA:RNA)
RNA: B9 RNA with U26C, C27G, G29U, U30C, A31U
DNA 1: CAATCTGAATTCCGGTCTCCC
DNA 2: TGGTGGCTACGACGGGATT
B26: UCACCGU (DNA:RNA)
RNA: B1 RNA with A26C, U27A, U28C, A30G
DNA 1: CAATCTGAATTCCGGTCTCCC
DNA 2: TGGTGGCTACGACGGGATT
B27: AUGAUUA (DNA:RNA)
RNA: B9 RNA with G25A, C27G, C28A, G29U
DNA 1: CAATCTGAATTCCGGTCTCCC
DNA 2: TGGTGGCTACGACGGGATT
B28: UGACCUC (DNA:RNA)
RNA: B9 RNA with G25U, U26G, C27A, G29C, A31C
DNA 1: CAATCTGAATTCCGGTCTCCC
DNA 2: TGGTGGCTACGACGGGATT
B29: UCCUGCG (DNA:RNA)
RNA: B9 RNA with G25U, U26C, C28U, U30C, A31G
DNA 1: CAATCTGAATTCCGGTCTCCC
DNA 2: TGGTGGCTACGACGGGATT
B30: GGACCAU (DNA:RNA)
RNA: B1 RNA with U25G, A26G, U27A, U28C
DNA 1: CAATCTGAATTCCGGTCTCCC
DNA 2: TGGTGGCTACGACGGGATT
B31: GCCACAA (DNA:RNA)
RNA: B9 RNA with U26C, C28A, G29C, U30A
DNA 1: CAATCTGAATTCCGGTCTCCC
DNA 2: TGGTGGCTACGACGGGATT

biological target: T1, RBFOX1 RRM; test: EMSA; HiTS-Eq, 1 nM pool, 10 min; buffer printed only for the single-RNA assays: 10 mM Tris pH 7.5, 150 mM NaCl, 3.4 mM EDTA, 0.001% NP-40, 30 C; conditions: tags: His6 N-terminal (pET28a); label: 5' 32P
Outline: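 These values rest on relative association constants, computed from read-count changes of each RNA species versus the control reaction and normalised to the cognate motif. Reads came from free RNA recovered by 8% native PAGE after purified RbFox RRM (wild type or mutant) at increasing concentrations was equilibrated for 10 min in 50 µL with 1 nM of a 5′-radiolabelled pool with 7 randomized nucleotides and DNA-annealed flanks.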

Binder	binding signal
B1	0.00681 KA relative to UGCAUGU
B2	0.00308 KA relative to UGCAUGU
B3	0.0118 KA relative to UGCAUGU
B4	0.00116 KA relative to UGCAUGU
B5	0.00858 KA relative to UGCAUGU
B6	0.0161 KA relative to UGCAUGU
B7	0.0124 KA relative to UGCAUGU
B8	0.0239 KA relative to UGCAUGU
B9	0.0126 KA relative to UGCAUGU
B10	0.0143 KA relative to UGCAUGU
B11	0.0134 KA relative to UGCAUGU
B12	0.00162 KA relative to UGCAUGU
B13	0.0139 KA relative to UGCAUGU
B14	0.00264 KA relative to UGCAUGU
B15	0.00994 KA relative to UGCAUGU
B16	0.0153 KA relative to UGCAUGU

Binder	binding signal
B17	0.00555 KA relative to UGCAUGU
B18	0.0131 KA relative to UGCAUGU
B19	0.0144 KA relative to UGCAUGU
B20	0.0117 KA relative to UGCAUGU
B21	0.0128 KA relative to UGCAUGU
B22	0.002 KA relative to UGCAUGU
B23	0.0163 KA relative to UGCAUGU
B24	0.00242 KA relative to UGCAUGU
B25	0.0118 KA relative to UGCAUGU
B26	0.00405 KA relative to UGCAUGU
B27	0.00154 KA relative to UGCAUGU
B28	0.0125 KA relative to UGCAUGU
B29	0.0166 KA relative to UGCAUGU
B30	0.0048 KA relative to UGCAUGU
B31	0.00584 KA relative to UGCAUGU
